The results in this text go back to the supplement of paper PMC4967469.

Lines with a small IC50 respond at low doses; fits outside the tested doses are given as limits. For AUC the same curve is integrated over the 256-fold range of doses and scaled to a fraction; values near 1 show little effect. An inferred top dose was derived from the fitted curves, not read from the paper.

Compound in the assay: CC1=C(C(=O)Nc2cc3cn[nH]c3cc2F)C(c2ccc(C(F)(F)F)cc2)CC(=O)N1 [GSK429286A]
The assay is described as follows: Viability of human cancer cell lines after 72 h of drug (GDSC screen). The conditions noted are these: top dose inferred. How it is done:
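Human cancer cell lines in 384-well plates, medium with 10% serum, drug for 72 h over a 256-fold dose range (nine 2-fold or five 4-fold steps up to the top dose). Adherent lines were fixed and stained with the nucleic acid dye Syto60, suspension lines read with resazurin; signal relative to control wells, capped at 0 and 100%. One two-parameter sigmoid per drug and line, fitted in a mixed model over all curves with the slope shared within a line.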
With “NCI-H1688 (small cell lung carcinoma, adherent, top dose 20 µM)”, the AUC worked out at 0.985 and the IC50 is greater than 20 µM.
For “NCI-H1693 (lung adenocarcinoma, adherent, top dose 20 µM)” the same measures were 0.975 and greater than 20 µM.
“NCI-H1694 (small cell lung carcinoma, suspension, top dose 20 µM)”: the AUC came out at 0.985 and the IC50 is greater than 20 µM.
The like results for “NCI-H1703 (lung adenocarcinoma, adherent, top dose 20 µM)” were, in that order, 0.964 and greater than 20 µM.
With “NCI-H1734 (lung adenocarcinoma, adherent, top dose 20 µM)”, the AUC came out at 0.967 and the IC50 is greater than 20 µM.
Take “NCI-H1755 (lung adenocarcinoma, adherent, top dose 20 µM)”: the AUC was determined as 0.882 and the IC50 is greater than 20 µM.
Take “NCI-H1770 (non-small cell lung carcinoma, suspension, top dose 20 µM)”: the AUC was 0.991 and the IC50 was greater than 20 µM.
As for “NCI-H1781 (lung adenocarcinoma, adherent, top dose 20 µM)”, the AUC turned out to be 0.985 and the IC50 was greater than 20 µM.
Consider “NCI-H1792 (lung adenocarcinoma, adherent, top dose 20 µM)”, for which the AUC worked out at 0.939 and the IC50 was greater than 20 µM.
For “NCI-H1793 (lung adenocarcinoma, adherent, top dose 20 µM)” the same measures were 0.98 and greater than 20 µM.
For “NCI-H1836 (small cell lung carcinoma, suspension, top dose 20 µM)” the same measures were 0.977 and greater than 20 µM.
For the cell line “NCI-H1838 (lung adenocarcinoma, adherent, top dose 20 µM)”, the AUC came out at 0.947 and the IC50 is greater than 20 µM.
For “NCI-H1869 (lung squamous cell carcinoma, adherent, top dose 20 µM)” the same measures were 0.98 and greater than 20 µM.
The like results for “NCI-H1876 (small cell lung carcinoma, adherent, top dose 20 µM)” were, in that order, 0.975 and greater than 20 µM.
“NCI-H1915 (large cell lung carcinoma, adherent, top dose 20 µM)”: the AUC is 0.965 and the IC50 is greater than 20 µM.
With “NCI-H1944 (lung adenocarcinoma, adherent, top dose 20 µM)”, the AUC is 0.952 and the IC50 is greater than 20 µM.
As to “NCI-H1975 (lung adenocarcinoma, adherent, top dose 20 µM)”, the AUC was 0.926 and the IC50 is greater than 20 µM.
Consider “NCI-H1993 (lung adenocarcinoma, adherent, top dose 20 µM)”, for which the AUC is 0.974 and the IC50 is greater than 20 µM.
The like results for “NCI-H2009 (lung adenocarcinoma, adherent, top dose 20 µM)” were, in that order, 0.987 and greater than 20 µM.
In the case of “NCI-H2023 (lung adenocarcinoma, adherent, top dose 20 µM)”, the AUC was 0.981 and the half-maximal inhibitory concentration (IC50) was greater than 20 µM.
For “NCI-H2029 (small cell lung carcinoma, adherent, top dose 20 µM)” the same measures were 0.992 and greater than 20 µM.
For “NCI-H2030 (lung adenocarcinoma, adherent, top dose 20 µM)” the same measures were 0.97 and greater than 20 µM.
For “NCI-H2052 (mesothelioma, adherent, top dose 20 µM)” the same measures were 0.979 and greater than 20 µM.
Turning to “NCI-H2081 (small cell lung carcinoma, suspension, top dose 20 µM)”, the AUC is 0.875 and the IC50 was greater than 20 µM.
The like results for “NCI-H2085 (lung adenocarcinoma, adherent, top dose 20 µM)” were, in that order, 0.974 and greater than 20 µM.
For “NCI-H2087 (lung adenocarcinoma, semi-adherent, top dose 20 µM)” the same measures were 0.983 and greater than 20 µM.
Regarding “NCI-H2110 (non-small cell lung carcinoma, adherent, top dose 20 µM)”, the AUC amounted to 0.97 and the IC50 was greater than 20 µM.
For “NCI-H2122 (lung adenocarcinoma, adherent, top dose 20 µM)” the same measures were 0.981 and greater than 20 µM.
The like results for “NCI-H2135 (non-small cell lung carcinoma, adherent, top dose 20 µM)” were, in that order, 0.99 and greater than 20 µM.
On to “NCI-H2141 (small cell lung carcinoma, suspension, top dose 20 µM)”, for which the AUC was determined as 0.968 and the IC50 is greater than 20 µM.
For “NCI-H2170 (lung squamous cell carcinoma, adherent, top dose 20 µM)” the same measures were 0.983 and greater than 20 µM.
Consider “NCI-H2171 (small cell lung carcinoma, suspension, top dose 20 µM)”, for which the AUC worked out at 0.97 and the IC50 is greater than 20 µM.
For “NCI-H2172 (non-small cell lung carcinoma, adherent, top dose 20 µM)” the same measures were 0.969 and greater than 20 µM.
For “NCI-H2196 (small cell lung carcinoma, adherent, top dose 20 µM)” the same measures were 0.987 and greater than 20 µM.
As for “NCI-H2227 (small cell lung carcinoma, semi-adherent, top dose 20 µM)”, the AUC was 0.718 and the IC50 was 5.69 µM.
For “NCI-H2228 (lung adenocarcinoma, adherent, top dose 20 µM)” the same measures were 0.954 and greater than 20 µM.
Take “NCI-H2291 (lung adenocarcinoma, adherent, top dose 20 µM)”: the AUC came to 0.981 and the IC50 was greater than 20 µM.
For “NCI-H2342 (lung adenocarcinoma, adherent, top dose 20 µM)” the same measures were 0.983 and greater than 20 µM.
With “NCI-H2347 (lung adenocarcinoma, adherent, top dose 20 µM)”, the AUC was 0.983 and the IC50 was greater than 20 µM.
For the cell line “NCI-H2405 (lung adenocarcinoma, adherent, top dose 20 µM)”, the AUC was 0.933 and the IC50 was greater than 20 µM.
The like results for “NCI-H2444 (non-small cell lung carcinoma, adherent, top dose 20 µM)” were, in that order, 0.982 and greater than 20 µM.
As to “NCI-H2452 (mesothelioma, adherent, top dose 20 µM)”, the AUC turned out to be 0.984 and the half-maximal inhibitory concentration (IC50) was greater than 20 µM.
The like results for “NCI-H3122 (lung adenocarcinoma, adherent, top dose 20 µM)” were, in that order, 0.983 and greater than 20 µM.
The like results for “NCI-SNU-1 (stomach, suspension, top dose 20 µM)” were, in that order, 0.931 and greater than 20 µM.
For “NCI-SNU-5 (stomach, suspension, top dose 20 µM)”, the AUC turned out to be 0.988 and the IC50 was greater than 20 µM.
Regarding “NCI-SNU-16 (stomach, suspension, top dose 20 µM)”, the AUC was determined as 0.991 and the IC50 was greater than 20 µM.
In the case of NEC8 (testis, adherent, top dose 20 µM), the AUC amounted to 0.988 and the IC50 is greater than 20 µM.
The like results for “NH-12 (neuroblastoma, adherent, top dose 20 µM)” were, in that order, 0.915 and greater than 20 µM.
Turning to “NK-92MI (lymphoid neoplasm, suspension, top dose 20 µM)”, the AUC came out at 0.874 and the IC50 came out at 17.2 µM.
On to “NKM-1 (acute myeloid leukaemia, suspension, top dose 20 µM)”, for which the AUC is 0.956 and the IC50 was greater than 20 µM.
Regarding “NMC-G1 (glioma, adherent, top dose 20 µM)”, the AUC worked out at 0.981 and the IC50 is greater than 20 µM.
For “NOMO-1 (acute myeloid leukaemia, suspension, top dose 20 µM)” the same measures were 0.929 and greater than 20 µM.
The like results for “NOS-1 (osteosarcoma, adherent, top dose 20 µM)” were, in that order, 0.98 and greater than 20 µM.
Consider “NTERA-2 cl.D1 (testis, adherent, top dose 20 µM)”, for which the AUC came out at 0.948 and the 50% inhibitory concentration (IC50) was greater than 20 µM.
The like results for “NU-DUL-1 (B-cell lymphoma, suspension, top dose 20 µM)” were, in that order, 0.957 and greater than 20 µM.
On to “NUGC-3 (stomach, adherent, top dose 20 µM)”, for which the AUC turned out to be 0.98 and the IC50 is greater than 20 µM.
For “NUGC-4 (stomach, adherent, top dose 20 µM)” the same measures were 0.987 and greater than 20 µM.
As for “NY (osteosarcoma, adherent, top dose 20 µM)”, the AUC was 0.987 and the IC50 is greater than 20 µM.
With “OACM5-1 (oesophagus, semi-adherent, top dose 20 µM)”, the AUC was 0.92 and the IC50 is greater than 20 µM.
Regarding “OACp4C (oesophagus, adherent, top dose 20 µM)”, the AUC turned out to be 0.87 and the half-maximal inhibitory concentration (IC50) was greater than 20 µM.
For the cell line “OAW-28 (ovary, adherent, top dose 20 µM)”, the AUC came out at 0.983 and the IC50 was greater than 20 µM.
The like results for “OAW-42 (ovary, adherent, top dose 20 µM)” were, in that order, 0.98 and greater than 20 µM.
